# Data reported in the supplement of paper PMC3334620.
# The full ranking holds about 33,000 sequences; the median of “E-score (-0.5 to 0.5)” is about -0.011, and the highest 2% start at about 0.28. Some of the results follow.
# Target: T1, Gcr1 (UniProt P07261)
# T1 sequence: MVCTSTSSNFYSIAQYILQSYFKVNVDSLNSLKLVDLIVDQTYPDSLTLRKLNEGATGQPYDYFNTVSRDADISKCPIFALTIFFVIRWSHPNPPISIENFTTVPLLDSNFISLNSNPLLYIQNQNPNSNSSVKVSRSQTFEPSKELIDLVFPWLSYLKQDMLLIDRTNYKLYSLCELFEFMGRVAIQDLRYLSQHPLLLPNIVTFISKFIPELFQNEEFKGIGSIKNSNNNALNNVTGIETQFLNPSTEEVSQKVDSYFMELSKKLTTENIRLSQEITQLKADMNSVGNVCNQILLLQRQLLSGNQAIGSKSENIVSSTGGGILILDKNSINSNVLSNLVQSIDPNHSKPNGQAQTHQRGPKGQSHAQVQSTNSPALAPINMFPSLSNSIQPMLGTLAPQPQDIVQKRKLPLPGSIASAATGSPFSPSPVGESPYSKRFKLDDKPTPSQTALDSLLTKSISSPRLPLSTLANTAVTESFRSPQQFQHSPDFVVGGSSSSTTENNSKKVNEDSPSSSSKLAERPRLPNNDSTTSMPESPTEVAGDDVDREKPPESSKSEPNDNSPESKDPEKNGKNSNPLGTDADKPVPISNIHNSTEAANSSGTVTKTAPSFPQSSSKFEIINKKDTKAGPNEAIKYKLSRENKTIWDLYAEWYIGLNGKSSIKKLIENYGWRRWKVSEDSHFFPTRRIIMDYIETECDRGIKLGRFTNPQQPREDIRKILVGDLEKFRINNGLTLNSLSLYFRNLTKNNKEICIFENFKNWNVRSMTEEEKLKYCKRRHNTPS
# Assay: PBM E-score (8-mer binding enrichment) (E-score (-0.5 to 0.5)); higher = stronger / more preferred TF binding; most listed sequences are background and not binding sites
# Settings: protein concentration: 100 nM; construct: GST-full length
# Description: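 Universal 'all 10-mer' protein binding microarrays (Agilent AMADID 015681) probed with GST-tagged S. cerevisiae TFs (full-length or DBD) made by in vitro transcription/translation (PURExpress), about 100-200 nM. Bound TF was detected with fluorescent anti-GST. Each ungapped 8-mer (which stands for itself and its reverse complement) is scored by the PBM enrichment score (E-score), a modified Wilcoxon-Mann-Whitney statistic from -0.5 to +0.5, computed with the Universal PBM Analysis Suite. Scale: above 0.35 generally sequence-specific binding.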
row,Sequence,PBM E-score
1,TCAATACA,0.128
2,CGGTATGA,-0.0622
3,GAGCGTCA,0.0398
4,GAGCGAAC,-0.28
5,AGCCGAGC,-0.0751
6,CATGCGTC,-0.0513
7,ATATCTCG,-0.0555
8,ACCCGGGC,0.0885
9,ATAAGCAG,0.155
10,CCTAGAGG,0.0618
11,GTTGACCA,-0.0401
12,AAGTTACT,0.119
13,ACTATACC,0.109
14,CGTACGGA,0.101
15,CACCCCGA,0.206
16,TGTTCTAA,0.0359
17,AACGGGAC,-0.207
18,CGCGCGCA,-0.104
19,ATCCTCGC,0.0994
20,GCACGTCC,-0.00197
21,ATAGCGAA,-0.0252
22,GTCACAGA,0.00024

row,Sequence,PBM E-score
1,CCCTCTAA,0.0336
2,CAACTCGC,-0.199
3,TGAGAGAA,-0.00362
4,AGACGGTC,-0.274
5,CACGTACG,0.0426
6,GCACCGGA,0.124
7,CCAATACC,0.205
8,CTGTTTTA,0.0786
9,CAACATGC,-0.0266
10,CGAGTGGA,0.233
11,AAAAGGTC,-0.0982
12,CTTATTTA,0.13
13,TAGGCCGA,-0.231
14,CTTGTCCA,-0.0626
15,CAACAATC,0.0112
16,ACCTAGAT,0.0487
17,CGTCCGTA,0.0514
18,AGTTCCAC,0.0854
19,TATATGGA,0.038
20,ACGTGTTC,-0.0263
21,TACGCTAA,0.0157
22,CAAAAAAA,0.245

row,Sequence,PBM E-score
1,CATCAGCG,0.0936
2,AGATTCAC,-0.00764
3,AACCAGCC,0.0606
4,CGGCGCGC,0.193
5,ATCCAAAC,-0.03
6,CGCTCGGA,0.0151
7,TAGTACCA,0.0841
8,CAGTTATA,0.0145
9,TCTGTGAA,0.0273
10,CCCGATAA,-0.0166
11,GTATTGCA,-0.0525
12,TATATTCA,0.0612
13,CCAAGTGG,0.0532
14,CAATAACG,0.0827
15,CCGTAGAC,-0.1
16,ACCTTCCT,0.0319
17,AACCCCTC,-0.0647
18,AACTAGCC,0.00513
19,GAAGCGGC,0.158
20,GACGTGAA,0.12
21,AGGGGGGC,-0.255
22,ACGGCCCC,-0.0114

row,Sequence,PBM E-score
1,ACAGCAAG,0.0255
2,CAGGAACA,-0.125
3,CTAGACAA,-0.119
4,CTAGTCGC,-0.0178
5,AAAACTTA,0.0958
6,AGCCAAGG,-0.00699
7,CCTTGCCC,-0.0706
8,AATTTCAG,0.0844
9,AATAACCG,0.0851
10,ATTTACAA,0.0394
11,TCCGTCAA,-0.0254
12,ATAACTTG,0.128
13,GCGGAACC,0.341
14,ACGCTACA,0.0449
15,GGTCCGAA,0.0333
16,ACACCAAC,0.085
17,TGTTGTAA,0.184
18,AGACTAGA,-0.0708
19,TACATATA,0.153
20,CCATCTTC,0.00634
